Among all 310,000 compounds or so, about 2,200 (0.71%) showed an effect of 50% or more. Effects have a minus sign here. Some of the results follow.
Each molecule was assayed against human ether-à-go-go-related gene (hERG) potassium channel (human, UniProt Q12809) (assay: primary screen, population patch clamp on CHO cells stably expressing hERG).
Sequence of human ether-à-go-go-related gene (hERG) potassium channel (Q12809 whole entry, looked up): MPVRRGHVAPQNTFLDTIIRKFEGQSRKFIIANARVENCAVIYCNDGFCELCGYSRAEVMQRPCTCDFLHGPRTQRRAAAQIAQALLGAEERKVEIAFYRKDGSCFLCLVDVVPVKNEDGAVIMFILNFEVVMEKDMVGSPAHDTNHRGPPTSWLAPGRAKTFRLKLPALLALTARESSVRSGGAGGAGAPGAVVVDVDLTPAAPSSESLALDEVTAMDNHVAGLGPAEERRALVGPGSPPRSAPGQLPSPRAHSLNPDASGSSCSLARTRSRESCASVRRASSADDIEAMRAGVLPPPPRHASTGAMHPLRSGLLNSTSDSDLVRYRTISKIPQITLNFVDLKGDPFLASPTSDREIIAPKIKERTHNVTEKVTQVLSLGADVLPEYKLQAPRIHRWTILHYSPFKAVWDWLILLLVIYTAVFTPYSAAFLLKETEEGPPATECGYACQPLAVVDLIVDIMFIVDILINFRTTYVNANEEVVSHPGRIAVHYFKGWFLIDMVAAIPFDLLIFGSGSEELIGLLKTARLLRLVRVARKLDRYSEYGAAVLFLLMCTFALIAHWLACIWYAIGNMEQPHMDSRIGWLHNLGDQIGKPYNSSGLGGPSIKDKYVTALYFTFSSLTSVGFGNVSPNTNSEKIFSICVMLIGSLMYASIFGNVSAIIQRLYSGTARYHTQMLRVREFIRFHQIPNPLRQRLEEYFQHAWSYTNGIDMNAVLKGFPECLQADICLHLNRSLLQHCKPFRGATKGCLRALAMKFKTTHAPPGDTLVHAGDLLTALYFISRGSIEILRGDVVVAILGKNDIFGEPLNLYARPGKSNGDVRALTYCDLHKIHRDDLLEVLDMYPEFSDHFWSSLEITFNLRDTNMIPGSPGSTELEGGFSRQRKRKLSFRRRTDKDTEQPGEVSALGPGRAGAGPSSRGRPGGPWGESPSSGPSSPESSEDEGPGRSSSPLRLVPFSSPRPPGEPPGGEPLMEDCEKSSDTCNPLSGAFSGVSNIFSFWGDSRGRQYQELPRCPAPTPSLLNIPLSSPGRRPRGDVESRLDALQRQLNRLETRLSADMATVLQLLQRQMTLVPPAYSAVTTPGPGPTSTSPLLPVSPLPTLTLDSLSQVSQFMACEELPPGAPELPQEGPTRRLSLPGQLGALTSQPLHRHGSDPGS
For CC(C)NC(=O)c1ccccc1NC(=O)C1CCCO1 (stereo not shown), the “hERG current change (%, negative = inhibition) at 1uM” value was 2.68%. For C=CCc1ccc(OCCCOc2ccc(C)cc2OC)c(OC)c1, the “hERG current change (%, negative = inhibition) at 1uM” value was 21.2%. For CCCOc1ccccc1NC(=O)c1c(-c2ccccc2)noc1C, the “hERG current change (%, negative = inhibition) at 1uM” value was 15.7%. COc1ccc(Sc2ccc(NC(=O)c3ccccc3Cl)cc2C#N)cc1 was tested, and the “hERG current change (%, negative = inhibition) at 1uM” value was 8.52%. Cc1ccc(O)c(CNc2ccccn2)c1 was tested, and the “hERG current change (%, negative = inhibition) at 1uM” value was 8.65%. In the case of Cc1cccc(C(=O)c2c(N)sc3c2CCCC3)c1, the “hERG current change (%, negative = inhibition) at 1uM” value is reported as 8.52%. For CCCCc1c(O)nc(SCCN(C)C)n(-c2ccccc2)c1=O, the “hERG current change (%, negative = inhibition) at 1uM” value was 13%. With COc1ccc(CCN2CC(C#N)=C3c4cc(OC)c(OC)cc4CCN3C2)cc1OC the “hERG current change (%, negative = inhibition) at 1uM” value was -12.9%. Cc1cc(OC(=O)c2cc([N+](=O)[O-])ccc2Cl)c([N+](=O)[O-])c(=O)[nH]1 was tested, and the “hERG current change (%, negative = inhibition) at 1uM” value was 4.01%. In the case of CCCCCCCC(=O)Nc1ccc(C(=O)N/N=C/c2cccc([N+](=O)[O-])c2)cc1, the “hERG current change (%, negative = inhibition) at 1uM” value is reported as 12.6%. Cc1ccccc1/C=N/n1c(COc2ccccc2)n[nH]c1=S was tested, and the “hERG current change (%, negative = inhibition) at 1uM” value was 8.21%. For O=C(Nc1ccccc1)C1=C(O)CC(c2ccc(Cl)cc2)N2CCN=C12 (stereo not shown), the “hERG current change (%, negative = inhibition) at 1uM” value was -15.7%. For CCC(Oc1ccccc1)C(=O)Nc1ccccc1N1CCCC1 (stereo not shown), the “hERG current change (%, negative = inhibition) at 1uM” value was 10.3%. In the case of O=C(Nc1cc2c(oc1=O)CCCC2=O)c1cccc(Cl)c1, the “hERG current change (%, negative = inhibition) at 1uM” value is reported as 14.4%. With CCOC(=O)c1cc2c(=O)n3ccccc3nc2n(Cc2ccco2)c1=NC(=O)c1ccc(OC)cc1OC the “hERG current change (%, negative = inhibition) at 1uM” value was -12.8%. C=CCSc1nc(N)c(C#N)c(-c2ccccc2)c1C#N was tested, and the “hERG current change (%, negative = inhibition) at 1uM” value was 5.82%. With Cc1cc(C(=O)N2CCN(c3cc(Cl)ccc3C)CC2)on1 the “hERG current change (%, negative = inhibition) at 1uM” value was -6.67%. With COC(=O)CCc1c(C)nc(N)[nH]c1=O the “hERG current change (%, negative = inhibition) at 1uM” value was 13.4%. With Cc1cc(=O)[nH]c(SCC(=O)c2c(N)n(C)c(=O)n(C)c2=O)n1 the “hERG current change (%, negative = inhibition) at 1uM” value was 10.5%. CCc1nc(N2CCCCC2C(=O)O)c2oc3ccccc3c2n1 (stereo not shown) was tested, and the “hERG current change (%, negative = inhibition) at 1uM” value was 10.9%. In the case of O=C(CN1CCCc2ccccc21)N/N=C/c1ccccc1, the “hERG current change (%, negative = inhibition) at 1uM” value is reported as 7.32%. With O=C1NC(=O)/C(=C/c2cccc3ccccc23)S1 the “hERG current change (%, negative = inhibition) at 1uM” value was 15.1%. CCCC(=O)N(Cc1cc2ccccc2[nH]c1=O)c1ccccc1OC was tested, and the “hERG current change (%, negative = inhibition) at 1uM” value was 17.6%. COc1ccc(CCN(C(=O)c2snc(C(N)=O)c2N)C(C)C(=O)NC2CCCCC2)cc1OC (stereo not shown) was tested, and the “hERG current change (%, negative = inhibition) at 1uM” value was 14.2%. For O=C(Cn1c(-c2ccccc2)noc1=O)N1CCC(Cc2ccccc2)CC1, the “hERG current change (%, negative = inhibition) at 1uM” value was -6.11%.
